Experimental data: the RNAGym collection of RNA variant scans (doi:10.1073/pnas.2313332121)
Variants at the floor of the assay are shown more often than the library holds them.

B1: TPR 5TU (parent)
chain: GGAUCUUCUCGAUCUAACAAAAAAGACAAAUCUGCCACAAAGCUUGAGAGCAUCUUCGGAUGCAGAGGCGGCAGCCUUCGGUGGCGCGAUAGCGCCAACGUUCUCAACUAUGACACGCAAAACGCGUGCUCCGUUGAAUGGAGUUUAUCAUG

Variants of: B1
Experiment: polymerase ribozyme fitness, log enrichment relative to wild type (log ratio); higher = more active; in vitro selection for triplet polymerase activity
How it was run: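 The heterodimeric triplet polymerase ribozyme's subunits were each mutagenized into PCR-built libraries and transcribed. Every library was selected once, in triplicate, by annealing with a biotinylated primer, the partner subunit and triplets, incubating frozen at −7 °C, gel-excising extended constructs, capturing on streptavidin beads and running RT-PCR. Input and output libraries were Illumina-sequenced, with genotypes kept only at ≥10 input reads and ≥1 read per output. Fitness, from inverse-variance-weighted replicate averages, is the base-2 logarithm of genotype enrichment over wild-type enrichment.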

Variant | polymerase ribozyme fitness (log ratio)
GGAUCUUCUCGAUCUAACAAAAAAGACAAAUCUGCCACAAAGCUUGAGAGCAUCUUCGGAUGCAGAGGCGGCAGCCUUCGGUUGCGCGAUAGCGCCACCGUUCUCAACUAUGACACGCAAAAUGUGUGAUCCGUUGAAUGGAGUUUAUCAUG | -3.47
GGAUCUUCUCGAUCUAACAAAAAAGACAAAUCUGCCACAAAGCUUGAGAGCAUCUUCGGAUGCAGAGGCGGCAGCCUUCGGUAGCUCGAUAGCGUCAACGUUCUCAACUAUGACAUGCAAAACGCGUGCUCCGUUGAAUGGAGUUCAUUAUG | ≤ -4.2
GGAUCUUCUCGAUCUAACAAAAAAGACAAAUCUGCCACAAAGCUUGAGAGCAUCUUCGGAUGCAGAGGCGGCAGCCUUCGGUAGCGCGAUAGCGCCAACGUUCGCAACUAUGACACGCAAAUCGCGUGCUCCGGUGAAUGGAGUUUAUCAUG | -3.23
GGAUCUUCUCGAUCUAACAAAAAAGACAAAUCUGCCACAAAGCUUGAGAGCAUCUUCGGAUGCAGAGGCGGCAGCCUUCGGUAGCGCGAUAGCGCCAACGUUCUCAACUAUGACACGAAAAACGCGUGAUCCGUUGAAUGGAGUUUAUCAUG | -3.64
GGAUCUUCUCGAUCUAACAAAAAAGACAAAUCUGCCACAAAGCUUGAGAGCAUCUUCGGAUGCAGAGGCGGCAGCCUUCGGUCGGGCGAUAGCGCCAACGUUCUCAACUAUGACACGCAAAUCGCGUGCUCCGUUGAAUGGAGUUUAUCAUG | ≤ -4.2
GGAUCUUCUCGAUCUAACAAAAAAGACAAAUCUGCCACAAAGCUUGAGAGCAUCUUCGGAUGCAGAGGCGGCAGCCUUCGGUAGCGCGAUAGCGCCAACGUGCUCAACUAUGACACGCAAAACGCGUGCUCCGUUGAAUGGAGUUUAUCAUG | ≤ -4.2
GGAUCUUCUCGAUCUAACAAAAAAGACAAAUCUGCCACAAAGCUUGAGAGCAUCUUCGGAUGCAGAGGCGGCAGCCUUCGGUCGCGCGAGGGCGCCAACGUUCUCAACUAUGACACGCAAAACGCGUGCUCCGUUGAAUGGAGUUUAUCAUG | ≤ -4.2
GGAUCUUCUCGAUCUAACAAAAAAGACAAAUCUGCCACAAAGCUUGAGAGCAUCUUCGGAUGCAGAGGCGGCAGCCUUCGGUCGCGCGAUAGCGCCAACGUUCUCAACUAUGACACGCAAAACGCGUGCUCCGUUGAAUGGAGUUUAGCAUA | -3.67
GGAUCUUCUCGAUCUAACAAAAAAGACAAAUCUGCCACAAAGCUUGAGAGCAUCUUCGGAUGCAGAGGCGGCAGCCUUCGGUCGCGCGAUAGCGCCAACGUUCUCACCUAUGACACGCAAAACGCGUGCUCCGUUGAAUGUAGUUUAUCAUG | ≤ -4.2
GGAUCUUCUCGAUCUAACAAAAAAGACAAAUCUGCCACAAAGCUUGAGAGCAUCUUCGGAUGCAGAGGCGGCAGCCUUCGGUUGCGCGAUAGAGCCAACGUUCUCAACUAUGACACGCAAAACGCGUGCUCCGUUGAAUGGACUUUAUCAUG | ≤ -4.2
GGAUCUUCUCGAUCUAACAAAAAAGACAAAUCUGCCACAAAGCUUGAGAGCAUCUUCGGAUGCAGAGGCGGCAGCCUUCGGUCGCGCGAUAGCGCCAACGUUCUCAACUAUGACAAGCAAAACGCGUGCUCCGUUGAAUGGAGUUGAUCAUG | -3.27
GGAUCUUCUCGAUCUAACAAAAAAGACAAAUCUGCCACAAAGCUUGAGAGCAUCUUCGGAUGCAGAGGCGGCAGCCUUCGGUCGCGCGAUAGCGCCAACGUUCUCAACUAUGACACGCAAAACGCGUGCUCCGUUCAAUGGAGUUUAUCAUG | -4.09
GGAUCUUCUCGAUCUAACAAAAAAGACAAAUCUGCCACAAAGCUUGAGAGCAUCUUCGGAUGCAGAGGCGGCAGCCUUCGGUAGCGCGAUAGCGCCAACGUUCUCAACUAUGACACGCAAAACGCGUUCUCCGUUGAAUCGGGUUUAUCAUG | ≤ -4.2
GGAUCUUCUCGAUCUAACAAAAAAGACAAAUCUGCCACAAAGCUUGAGAGCAUCUUCGGAUGCAGAGGCGGCAGCCUUCGGUCGCGCGAUAGCGCCAACGUUCUCAACUAUGACACGCAAAACGCGUGCUGCGUUGAAUGGAGUUUAUCAUG | -3.32
GGAUCUUCUCGAUCUAACAAAAAAGACAAAUCUGCCACAAAGCUUGAGAGCAUCUUCGGAUGCAGAGGCGGCAGCCUUCGGUUGCGCGAUAGCGCCAACGUUCUGAGCUAUGACACGCAAAACGCGUGCUCCGUGGAAUGGAGUUUAUCAUC | ≤ -4.2
GGAUCUUCUCGAUCUAACAAAAAAGACAAAUCUGCCACAAAGCUUGAGAGCAUCUUCGGAUGCAGAGGCGGCAGCCUUCGGUCGCACGAUAGCGCCAACGCUCUCAACUAUGACACGCAAAACUCGUGCUCCUUUGAAUGGAGUUUAUCAUG | ≤ -4.2
GGAUCUUCUCGAUCUAACAAAAAAGACAAAUCUGCCACAAAGCUUGAGAGCAUCUUCGGAUGCAGAGGCGGCAGCCUUCGGUAGCGCGAUAGCGUCAACGUUCUCCGCUAUGACACGCAAAACGCGUGCUCCGUUGAAUGGAGUUUAUCAUG | -3.5
GGAUCUUCUCGAUCUAACAAAAAAGACAAAUCUGCCACAAAGCUUGAGAGCAUCUUCGGAUGCAGAGGCGGCAGCCUUCGGUUGCGCGAUAGCGCCAACGUUUUCAACUAUGACACGCAAAACGCGUGCUCCGUUGAAUGGAGUUUAUCAUG | 0.2
GGAUCUUCUCGAUCUAACAAAAAAGACAAAUCUGCCACAAAGCUUGAGAGCAUCUUCGGAUGCAGAGGCGGCAGCCUUCGGUAGCGAGAUAGCGCCAACGUUCUCAACUAUGACACGCAAAACGCGUGCUCCGUUGAUUGGAAUUUAUCAUG | ≤ -4.2
